{"source": "PubChem BioAssay AID1347165", "about": "(National Center for Advancing Translational Sciences (NCATS), 2019)", "note": "The campaign covered roughly 220,000 compounds. About 5,700 (2.6%) were called active. The shares of active, inactive and inconclusive entries below differ from those in the screen. The call rests on the fitted dose curve; in most records, active means well fitted inhibition curve with a large enough effect; inconclusive means small, poorly fitted or top-dose-only effect; inactive means no such curve, though single readings can be large or run the other way. A potency beside an inconclusive call is a rough fit, not a confirmed value. Potency means the concentration at half of the fitted maximal effect; tags describe the fitted curve by direction and shape."}
{"biological_target": "Lysine-specific demethylase 5B (Homo sapiens) (UniProt Q9UGL1)", "sequence (Q9UGL1 whole entry, looked up)": "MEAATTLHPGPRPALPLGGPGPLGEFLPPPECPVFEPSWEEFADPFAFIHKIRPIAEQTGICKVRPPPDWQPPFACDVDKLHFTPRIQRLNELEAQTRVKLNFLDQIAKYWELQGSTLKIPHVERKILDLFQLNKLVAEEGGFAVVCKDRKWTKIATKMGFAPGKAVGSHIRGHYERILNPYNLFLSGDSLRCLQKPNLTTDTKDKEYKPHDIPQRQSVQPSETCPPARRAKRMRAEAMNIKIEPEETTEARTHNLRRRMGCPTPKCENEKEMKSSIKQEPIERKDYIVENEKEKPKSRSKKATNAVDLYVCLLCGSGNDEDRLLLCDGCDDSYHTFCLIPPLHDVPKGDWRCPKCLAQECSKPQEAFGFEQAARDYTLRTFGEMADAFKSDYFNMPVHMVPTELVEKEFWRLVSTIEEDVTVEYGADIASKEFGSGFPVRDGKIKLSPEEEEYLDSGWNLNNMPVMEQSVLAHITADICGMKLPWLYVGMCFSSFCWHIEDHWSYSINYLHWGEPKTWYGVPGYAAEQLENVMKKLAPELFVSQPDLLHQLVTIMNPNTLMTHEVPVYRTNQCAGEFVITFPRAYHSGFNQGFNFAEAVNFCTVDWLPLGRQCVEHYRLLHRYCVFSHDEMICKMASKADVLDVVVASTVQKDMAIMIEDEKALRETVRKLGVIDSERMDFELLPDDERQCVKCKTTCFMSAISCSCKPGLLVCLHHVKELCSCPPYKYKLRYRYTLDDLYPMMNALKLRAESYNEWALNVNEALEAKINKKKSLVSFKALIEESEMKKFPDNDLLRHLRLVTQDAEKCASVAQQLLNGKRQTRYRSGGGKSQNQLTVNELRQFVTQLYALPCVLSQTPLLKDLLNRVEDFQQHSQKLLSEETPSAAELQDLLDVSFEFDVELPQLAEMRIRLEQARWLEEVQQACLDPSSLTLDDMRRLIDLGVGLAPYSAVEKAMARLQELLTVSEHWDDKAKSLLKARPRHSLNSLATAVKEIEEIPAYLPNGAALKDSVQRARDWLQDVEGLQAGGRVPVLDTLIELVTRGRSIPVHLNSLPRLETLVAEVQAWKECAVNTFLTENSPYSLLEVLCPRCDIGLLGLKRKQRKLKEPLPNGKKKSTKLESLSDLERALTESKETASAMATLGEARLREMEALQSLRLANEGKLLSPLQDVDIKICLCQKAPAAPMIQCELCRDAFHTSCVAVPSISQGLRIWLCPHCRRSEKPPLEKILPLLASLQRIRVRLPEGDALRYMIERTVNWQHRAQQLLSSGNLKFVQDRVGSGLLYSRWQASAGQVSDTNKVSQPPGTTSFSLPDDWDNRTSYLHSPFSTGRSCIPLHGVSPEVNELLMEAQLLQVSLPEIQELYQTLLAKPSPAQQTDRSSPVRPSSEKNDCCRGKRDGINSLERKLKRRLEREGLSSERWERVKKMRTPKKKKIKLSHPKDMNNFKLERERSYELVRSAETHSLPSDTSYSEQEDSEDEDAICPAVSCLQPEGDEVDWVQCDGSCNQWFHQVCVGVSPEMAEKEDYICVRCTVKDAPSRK", "test": "Primary screen for KDM5B Histone Demethylases FDH-coupled qHTS; further: nearly all actives have a fitted effect of over 70% in size; on activity change, negative = inhibition: 0% is about no effect", "conditions": "FDH-coupled NADH fluorescence (FDH is formaldehyde dehydrogenase); activity change, negative = inhibition: at 57.7 µM (top of the series) unless noted", "procedure,_shortened": "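Measured: NADH fluorescence change, 30 min, RT. System: KDM5BΔAP 200 nM final, H3K4me3 peptide, α-KG, Fe(II), ascorbate, NAD⁺ plus FDH, pH 7.5 HEPES. Compounds: titrated, 10 min pre-incubation with enzyme.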"}
{"smiles": "CN(C)c1ccc(-c2nnc([C@H]3CCN(CC4CCCCC4)C3)o2)cc1", "Potency": "active: 31.6 µM"}
{"smiles": "CN(c1ccccc1)c1ccc2nnc(-c3cc(C(=O)NC4CCOCC4)ccn3)n2n1", "Potency": "inconclusive: 31.6 µM [inhibitor, partial curve]"}
{"smiles": "CSc1ccc(/C=C(/C#N)C(=O)C(C)(C)C)cc1", "Potency": "inconclusive: 25.1 µM [inhibitor, partial curve, poor fit]"}
{"smiles": "Cc1noc(C)c1NC(=O)N[C@@H]1C[C@H](Cn2cc(-c3cccnc3)nn2)[C@@H](O)[C@H]1O", "Potency": "inconclusive: 15.8 µM [inhibitor, partial curve, poor fit]"}
{"smiles": "CCOc1cccc(-c2nc(C(=O)NCC3CCCO3)cs2)c1", "note": "(configuration not stated)", "Potency": "inconclusive: 28.2 µM [inhibitor, single point]"}
{"smiles": "COc1cccc(-n2c(SCC(=O)Nc3ccc4c(c3)OCO4)nc3c([nH]c4ccccc43)c2=O)c1", "Potency": "inconclusive: 31.6 µM [inhibitor, partial curve, poor fit]"}
{"smiles": "COc1cccc(C(=O)NCc2nnc3ccc(-c4ccc(C)cc4)nn23)c1OC", "Potency": "active: 14.1 µM"}
{"smiles": "COC(=O)/C=C/C(=O)Nc1cc(Cl)ccc1O", "Potency": "inconclusive: 35.5 µM [inhibitor, single point]"}
{"smiles": "Cc1ccccc1NC(=O)CSc1nc(-c2cccs2)nc2cc(=O)[nH]n12", "Potency": "inconclusive: 35.5 µM [inhibitor, single point]"}
{"smiles": "O=C(c1cc(N2CCCCC2)nc2ccccc12)N1CCOCC1", "Potency": "inconclusive: 39.8 µM [inhibitor, single point]"}
{"smiles": "CC1CCc2c(nc3ccc4ccccc4c3c2-c2cccc(O)c2)C1", "note": "(configuration not stated)", "Potency": "inconclusive: 5.01 µM [inhibitor, full curve, poor fit]"}
{"smiles": "N#Cc1nc(/C=C/c2ccc(F)cc2)oc1N1CCCCCC1", "Potency": "inconclusive: 15.8 µM [inhibitor, partial curve, poor fit]"}
{"smiles": "C[C@@]1(O)CCN(Cc2cccc(F)c2)C[C@H]1N1CCCC1", "Potency": "inconclusive: 15.8 µM [inhibitor, partial curve, poor fit]"}
{"smiles": "Cc1ccc(C(=O)/C=C\\N(C)C)cc1C", "activity change, negative = inhibition": "inactive: -19.9%"}
{"smiles": "O=C(NC1CC1)[C@@H]1CN(Cc2cc(F)c(F)cc2F)C[C@H]1CO", "Potency": "inconclusive: 8.91 µM [inhibitor, full curve, poor fit]"}
{"smiles": "CCOC(=O)c1c(C)c2ccccc2n2cc(CN3CCOCC3)c(C#N)c12", "Potency": "inconclusive: 22.4 µM [inhibitor, partial curve, poor fit]"}
{"smiles": "O=C(NC[C@H]1O[C@@H](CO)[C@@H](O)[C@H]1N1CCN(c2cccc(C(F)(F)F)c2)CC1)Nc1ccccc1", "Potency": "inconclusive: 39.8 µM [inhibitor, partial curve, poor fit]"}
